This sample is rich in variants without activity.
B1: TPR 5TU (parent)
chain: GGAUCUUCUCGAUCUAACAAAAAAGACAAAUCUGCCACAAAGCUUGAGAGCAUCUUCGGAUGCAGAGGCGGCAGCCUUCGGUGGCGCGAUAGCGCCAACGUUCUCAACUAUGACACGCAAAACGCGUGCUCCGUUGAAUGGAGUUUAUCAUG

Variants of: B1
Test: polymerase ribozyme fitness, log enrichment relative to wild type (log ratio); higher = more active; in vitro selection for triplet polymerase activity
Method in brief: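 Genotype fitness is the logarithm of its enrichment divided by wild-type enrichment, using inverse-variance-weighted averages of replicates. That logarithm is base 2. Enrichment was measured by Illumina sequencing of input and output libraries from one triplicate in vitro selection round, with frozen incubation at −7 °C, on PCR-built, transcribed mutant libraries of each subunit of a heterodimeric triplet polymerase ribozyme, retaining genotypes with ≥10 input reads and ≥1 read per output.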

Variant	polymerase ribozyme fitness (log ratio)
A17U G50C C105G G124A C132U A138C	≤ -4.2
A17U G50U C57A C93G C131G	≤ -4.2
A17U G50U G88C C114G G141C	≤ -4.2
A17U G58A A91U C95G U102C A113C	≤ -4.2
A17U G58C A66C U77A	≤ -4.2
A17U G58C G71A A98G G126U C131A	≤ -4.2
A17U G58C G80C C93U	≤ -4.2
A17U G59A A60G C85A U101A G143U	≤ -4.2
A17U G59A G81U G83U C93U U127A G128A A147G	≤ -4.2
A17U G68A G92U U146G	≤ -4.2
A17U G80C C93A U101G	≤ -4.2
A17U G81C U102G U130G G141A	≤ -4.2
A17U G86C G88C C93A A98G U111G G136A	≤ -4.2
A17U G94C C105A G141C	≤ -4.2
A17U U33A U45A C57G G70C C87A A98U	≤ -4.2
A17U U45A C57G G62A G88A G126U	≤ -4.2
A17U U53G C57U G59C G117U	-0.451
A17U U55A A60C G80U	≤ -4.2
A17U U55A G84C C95G U148A	-3.23
A17U U56A U78G U102G U130A U151A	≤ -4.2
A17U U61C C79A G92A A97U A147U	≤ -4.2

Variant	polymerase ribozyme fitness (log ratio)
C18A A19C A40C C85U	0.244
C18A A19G C85U U101G C125U C129A	≤ -4.2
C18A A20C G42A C57U C95U C132U A147U	≤ -4.2
C18A A21C A37C G81A C87G	≤ -4.2
C18A A21C C85A A91U	≤ -4.2
C18A A23C C27U A28C C43G G86U	≤ -4.2
C18A A23C G59A G88C A107G A142U	≤ -4.2
C18A A26C C36U G88A G140C	≤ -4.2
C18A A29C G67C C95G	≤ -4.2
C18A A29G A37C C85U A91U C93U A122G A150C	≤ -4.2
C18A A30G G34A G71A G86U U139C	≤ -4.2
C18A A30U C85A	≤ -4.2
C18A A39C C43U C76A A89C A91C C99G U144G	≤ -4.2
C18A A52C C85A C93U C96G A121C U146C	≤ -4.2
C18A A60C G84U A89U G117C C125U U151A	≤ -4.2
C18A A89G U90G A97G	≤ -4.2
C18A C32G U53A C93A A121G U148G	≤ -4.2
C18A C36A A37U G94C C105G G128U U135C G152A	≤ -4.2
C18A C54A A66U C87A G88U U104G	≤ -4.2
C18A C75A C85G C132G A138G U148G	≤ -4.2
C18A C87U A91C	≤ -4.2

Variant	polymerase ribozyme fitness (log ratio)
C18A C96G C108A U109A A115G A142G	≤ -4.2
C18A G25C A28U G62C C76G U82C A120U U127G U139A	≤ -4.2
C18A G84A G100U C125G	≤ -4.2
C18A G94C C108G	≤ -4.2
C18A U31G C35G A39G C85G	≤ -4.2
C18A U55A G68C U90G	≤ -4.2
C18A U55G C85A C118U	-2.09
C18A U56A G92U C105U C114A U144G	-3.79
C18G A19C U31G A40U G71U C85U U90G G100A A150U	≤ -4.2
C18G A19U A22U A91G C123G G133C	≤ -4.2
C18G A19U A28C G58C C85U	≤ -4.2
C18G A19U G50A C51U G67A G92C C129U G141A	≤ -4.2
C18G A21G A24U A41C U53G C54G G84U G92U C93G A120G	≤ -4.2
C18G A21G G88U G126C	≤ -4.2
C18G A21U G80C C93G A107G U151G	≤ -4.2
C18G A22C A26C C76U C87U C129G	≤ -4.2
C18G A22C U45A G88U A89U G92C C99G	≤ -4.2
C18G A23C U44A C87A C99U C116U	≤ -4.2
C18G A23C U53A U127C U151G	≤ -4.2
C18G A24G A26C U78A G80C A91U C99U	≤ -4.2
C18G A24U A39C C63U G68A U78A U111C G140C	≤ -4.2

Variant	polymerase ribozyme fitness (log ratio)
C18G A26G A28U A30U A40C G59U G70U G140C	≤ -4.2
C18G A26G C93G	≤ -4.2
C18G A26G G46A C57A C63G C95U	≤ -4.2
C18G A26U C75A C87G C105G A120U	≤ -4.2
C18G A28C A49C G50U C79A C85U A107U C118A G152U	≤ -4.2
C18G A28G A29U A98G	≤ -4.2
C18G A28G C85G A91G G92A A119C	≤ -4.2
C18G A28G C87U	≤ -4.2
C18G A28U A29U A66G G67C C96U A106C	≤ -4.2
C18G A29C C32A	≤ -4.2
C18G A29C C43A C76A C118A	≤ -4.2
C18G A29C G83A	≤ -4.2
C18G A29U C57G G94C A113C A138G	≤ -4.2
C18G A29U U31G U44C A49U C76U A98G C118A	≤ -4.2
C18G A30C A40C G83C C93A A106U C108A	≤ -4.2
C18G A37U G65A C96G C108A A150U	≤ -4.2
C18G A37U U56A C118A U127G U146C	≤ -4.2
C18G A40U U53A G59A A97U U135G U144A	≤ -4.2
C18G A41U A60U G83C C95U	≤ -4.2
C18G A52C C54U G68C G81A C87G C93G C99U	≤ -4.2

From the RNAGym collection of RNA variant scans (doi:10.1073/pnas.2313332121)
